Among the data in PubChem BioAssay AID1240 (Sanford-Burnham Center for Chemical Genomics, 2008) are displacement values, retold here.

Out of some 50,000 compounds screened, about 800 (1.6%) showed an effect of 50% or more. This is one part of the list.

For this assay, the target named is Bcl-2-like protein 10 (Homo sapiens) (UniProt Q9HD36). Description: TR3 peptide-Bcl-B binding displacers, biochemical primary FP assay, phenotype converters (AID 1240).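 Note: 0% = Bcl-B with tracer peptide and DMSO and 100% = tracer peptide lacking Bcl-B.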 Particulars: GST-Bcl-B / FITC-TR3 peptide fluorescence polarization; stronger effect = higher value; compound at 3.75 mg/L. Background: Fluorescence polarisation rises when a labelled molecule tumbles more slowly, as on binding a larger partner.
UniProt Q9HD36, sequence (Q9HD36 whole entry, looked up): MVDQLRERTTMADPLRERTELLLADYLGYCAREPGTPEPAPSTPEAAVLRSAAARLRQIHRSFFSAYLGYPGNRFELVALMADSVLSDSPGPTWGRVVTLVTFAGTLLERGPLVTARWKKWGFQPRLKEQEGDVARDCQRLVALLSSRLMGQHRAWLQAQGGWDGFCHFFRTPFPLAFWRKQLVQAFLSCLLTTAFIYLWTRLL
For `COC(=O)c1c(-c2ccc(F)cc2)csc1NC(=O)C1CCCCC1C(=O)O` (stereo not given), the displacement is -0.2%.
Consider `COC(=O)c1cc(NC(=O)c2cc3ccccc3o2)cc(C(=O)OC)c1`, for which the displacement came out at 18.4%.
On to `COc1cccc(/C=C/c2nc3ccccc3c(=O)[nH]2)c1O`, for which the displacement was 4.9%.
For `COc1ccc2c(c1OC)C(=O)N(c1cccc(C)c1)C2`, the displacement was -10.2%.
As for `CCCCNC(=O)C(=O)NCCCOC`, the displacement is 2.3%.
For `CC1=C(C(=O)Nc2ccccc2)C(c2ccccc2Br)NC(=O)N1` (stereo not given) the value was -1.2%.
For `O=C(/C=C/c1ccccc1)Nc1ccccc1C#Cc1ccccc1` the value was -11.6%.
For `Cc1c(Cc2ccccc2)c(=O)n2c([nH]c3ccccc32)c1C#N` the value was -6%; for `COc1ccc(S(=O)(=O)N2CCN(Cc3cccc(Cl)c3)CC2)cc1`, 6.8%; for `CC(=O)NS(=O)(=O)c1ccc(NC(=O)Cc2ccccc2)cc1`, 3.2%.
Take `CC(=O)c1ccc(NC(=O)Nc2ccccc2C)cc1`: the displacement was determined as 4.6%.
For `CC(C)(C)OC(=O)NNC(=O)c1ccco1` the value was -3.1%.
`O=C(Nc1ccccc1)c1ccc(NS(=O)(=O)c2ccc(Br)cc2)cc1`: the displacement came to 12.3%.
For `O=C1CC2c3ccccc3C1C1C(=O)N(c3ccccc3)C(=O)C21` (stereo not given) the value was -6.8%.
For `O=C1OC(c2ccc(Cl)cc2)=C/C1=C\c1cccs1` the value was -8.7%; for `Cc1cccc(OCCN2CCOCC2)c1`, 7.8%; for `COc1ccc(Cl)cc1C(=O)Nc1ccc(Br)cc1`, 10.8%.
For `Cc1cc(=O)[nH]c(-n2nc(C)c(Oc3ccccc3O)c2C)n1` the value was -23.7%; for `Cc1ccc2ccc(S(=O)(=O)n3nnc4ccccc43)cc2c1`, 7.2%; for `CCOc1ccccc1NC(=O)c1ccc(CN2CCc3ccccc3C2)cc1`, 10.7%.
In the case of `O=C(COc1cccc2ccccc12)NCc1cccnc1`, the displacement came to 8.3%.
`COc1ccc2oc(=O)c(-c3csc(N/N=C/c4ccco4)n3)cc2c1`: the displacement was -3.1%.
For `CCc1ccccc1NC(=O)CN(c1ccccc1OC)S(=O)(=O)c1ccccc1` the value was 0.6%; for `Cc1cc(/C=N/n2cnnc2)c(C)n1-c1ccc(F)cc1`, -18%; for `N#C/C(=C/c1cccc(F)c1)C(=O)Nc1cccc(Br)c1`, -19.5%.
In the case of `Cc1ccc(NC(=O)C2CCCCC2C(=O)O)nc1` (stereo not given), the displacement is -2.8%.
Regarding `C=CCOc1ccc(/C=C2/C(=O)NC(=S)N(CC=C)C2=O)cc1OCC`, the displacement was -3.3%.
In the case of `CN1C(=O)C(=Cc2ccc(-c3cc([N+](=O)[O-])ccc3O)o2)C(=O)N(C)C1=O`, the displacement is 12.7%.
Take `Cc1cc(C(=O)N2CCN(c3ccc(Cl)cc3)CC2)ccc1[N+](=O)[O-]`: the displacement is -6.9%.
As for `CCCOc1ccc(CN(C)C)cc1CN(C)C`, the displacement is -0.9%.
For `COC(=O)c1ccccc1NC(=O)CCOc1ccccc1` the value was -4%.
Take `CCOC(=O)c1ccc(NC(=O)c2cc(Cl)c(OC)c(Cl)c2)cc1`: the displacement was 11.6%.
`CCOc1c(Cl)cc(C=C2C(=O)NC(=O)NC2=O)cc1Cl`: the displacement was -5.7%.
As to `Cc1cccc(NC(=O)C(=O)NCCC(C)C)c1C`, the displacement is -9.7%.
For `O=C1c2ccccc2C(=O)N1CCSc1ncn[nH]1` the value was 8.8%.
Regarding `O=C1c2ccccc2C(=O)C1(Nc1ccc(I)cc1)c1ccccc1`, the displacement came to 3.7%.
For `c1cc(NCc2ccc3c(c2)OCO3)cc(-c2nc3ccccc3o2)c1` the value was 2.8%; for `COc1ccc(OCC(=O)NC2CC(C)(C)NC(C)(C)C2)cc1`, -0.7%.
For `Cc1ccccc1C(=O)N1CCN(Cc2ccccc2)CC1` the value was -12.3%; for `CCOc1cc(C(=O)N2CCc3ccccc3C2)cc(OCC)c1OCC`, -9.7%; for `CC(C)(C)c1nc(Cc2ccc([N+](=O)[O-])cc2)no1`, -7.4%.
For `Cc1cccc(OC(=O)COc2ccc(Cl)cc2Cl)c1` the value was -3.3%.
As to `Cc1cc(C)n(C(=O)c2cccs2)n1`, the displacement was -8.6%.
For `Cc1ccc(/C=C/C(=O)Nc2ccc(F)cc2F)o1` the value was -0.7%; for `CCOc1ccc(C(=O)Nc2ccc([N+](=O)[O-])cc2)cc1Cl`, -9.7%.
For `Cc1ccccc1NS(=O)(=O)c1ccc2c(c1)C(=O)c1cc(S(=O)(=O)Nc3ccccc3C)ccc1-2`, the displacement is 4.5%.
For `CC1=C(C(=O)OCc2ccccc2)C(c2cccc(Cl)c2Cl)C2=C(CCCC2=O)N1` (stereo not given) the value was -2.1%; for `COc1cc(Oc2ccccc2)nc(N)n1`, -3.3%; for `CCc1ccccc1N(CC(=O)Nc1ccccc1Br)S(C)(=O)=O`, -3.5%.
For `COc1cccc(OC)c1C(=O)Nc1ccc(C)cc1Br` the value was 1.9%; for `CC(=O)Nc1ccc(N2C(=O)c3ccc(C(=O)c4cccc([N+](=O)[O-])c4)cc3C2=O)cc1`, -5.3%; for `CCCSc1nsc(SCCC)c1C(=O)O`, 1.8%.
Consider `O=C(Nc1ccc(N2CCOCC2)c(Cl)c1)c1ccc([N+](=O)[O-])cc1Cl`, for which the displacement was determined as 2.5%.
For `O=C(Nc1ccc(O)cc1)c1ccc(Oc2ccc([N+](=O)[O-])cc2)cc1`, the displacement is 3.2%.
For `CCC1Nc2ccc(C)cc2C(Nc2ccc(C)cc2)C1C` (stereo not given), the displacement was 10.4%.
Consider `Cc1cc(/C=C2\C(=O)NC(=O)N(c3ccc4c(c3)OCO4)C2=O)c(C)n1-c1ccc(F)cc1`, for which the displacement worked out at 8%.
For `CC1=C(C)CC(C(=O)NCCc2ccccc2)C(C(=O)O)C1` (stereo not given), the displacement was determined as 16.6%.
For `CCN(CC)c1ccc(/C=C2/C(=O)NN(c3ccc(C)cc3)C2=O)c(O)c1`, the displacement was determined as 23.1%.
Regarding `CCOC(=O)c1ccc(NC(=O)c2ccc(OCC(C)C)cc2)cc1`, the displacement was 15.2%.
For `CC1(C)CC(=O)C2=C(C1)Nc1ccccc1N(C(=O)c1ccc(Cl)cc1)C2c1ccccn1` (stereo not given) the value was -3.4%.
For `COc1ccc(S(=O)(=O)NCc2ccccc2C)cc1OC` the value was -2.5%; for `COc1ccc(O)c(C2=Nc3ccccc3N=C(C(F)(F)F)C2)c1`, 3.6%; for `CCOC(=O)c1ccc(N/C=C/C(=O)c2ccc(Cl)cc2)cc1`, 59.8%.
For `CC(=O)Nc1cccc(-c2nc3cc(C)ccc3o2)c1C` the value was 99.7%; for `CCN(CC)S(=O)(=O)c1ccc(Cl)c(C(=O)Oc2ccc([N+](=O)[O-])cc2)c1`, 3.3%; for `CCO/C=C1\C(=O)N(CC)c2ccccc21`, 19.1%.
With `CCCCOc1ccc(C(=O)Nc2ccc(-c3nc4ncccc4o3)cc2)cc1`, the displacement is 10.6%.
Regarding `Cc1ccc(C2/C(=C(/O)c3ccccc3)C(=O)C(=O)N2c2cccc(C)c2)cc1` (stereo not given), the displacement is 18.1%.
For `CCOC(=O)C1=NN(C(=O)c2ccncc2)C(O)(C(C)(C)C)C1` (stereo not given) the value was -22.6%; for `CC(=Nc1ccc(N)cc1)C1=C(O)c2ccccc2C1=O`, 3.9%; for `O=C(Nc1ccc2oc(-c3ccccc3)nc2c1)c1ccccc1I`, 13.5%.
For `CC(=O)Nc1ccc(OC(=O)c2ccc([N+](=O)[O-])cc2)cc1` the value was -3.2%.
Consider `O=C(NCCN1CCOCC1)c1nn2c(C(F)(F)F)cc(-c3ccc(Br)cc3)nc2c1Cl`, for which the displacement was found to be 4.5%.
For `N#CC1C(=S)N=C2CCCCC2=C1c1cccs1` (stereo not given), the displacement was 5.7%.
For `Cc1ccc(NC(=O)c2ccc(-c3ccc(Br)cc3)o2)c([N+](=O)[O-])c1` the value was 0.1%; for `O=C(c1ccc(OCc2ccccc2)cc1)N1CCN(c2ccc([N+](=O)[O-])cc2)CC1`, 17.9%.
In the case of `Cc1cc(C)nc(NS(=O)(=O)c2ccc(NS(=O)(=O)c3ccc4c(c3)C(=O)c3ccccc3-4)cc2)n1`, the displacement came to 8.4%.
For `COCCOC(=O)c1c(C)oc2ccc(OC(=O)c3ccc(OC)c(OC)c3)cc12` the value was 7.8%.
For `O=C1/C(=C\c2ccc3c(c2)OCO3)N=C(c2ccccc2)N1c1ccc(F)cc1` the value was 179%.
As for `Cc1ccc(C(=O)c2c(N)sc3c2CCCC3)cc1`, the displacement is -5.3%.
For `CC1=C(C(=O)OCCOc2ccccc2)C(c2ccccc2[N+](=O)[O-])NC(=O)N1C` (stereo not given) the value was 2.9%; for `CC(=O)C(=Cc1cc(C(C)(C)C)c(O)c(C(C)(C)C)c1)C(C)=O`, -5.3%.
`COC(=O)c1c(-c2ccc(Cl)cc2)csc1NC(=O)C1CC=CCC1C(=O)O` (stereo not given): the displacement came out at 12.3%.
For `Cc1cc(OCCCCn2ccnc2)cc(C)c1Cl` the value was 12.6%; for `Cc1ccc(Cl)cc1NC(=O)C(=O)NN=C1CCN(C)CC1`, -6.6%; for `O=[N+]([O-])c1ccc(N2CCNCC2)cc1Sc1cccc2cccnc12`, 5.7%.
For `CC1CC(Nc2ccccc2)c2ccccc2N1C(=O)NC1CCCCC1` (stereo not given) the value was 3.9%; for `COc1c(Cl)cc(C(=O)Nc2ccc(F)c([N+](=O)[O-])c2)cc1Cl`, 7%; for `Cc1cc(F)c(F)cc1C(=O)N1CCN(c2cc(N3CCCCC3)c(F)cc2[N+](=O)[O-])CC1`, 0%.
For `Cc1ccc(N2C(=O)C3C(C2=O)C2(C)C(=O)C3(C)C(c3ccccc3)=C2c2ccccc2)cc1C` (stereo not given) the value was 0.2%; for `Cc1ccc(-c2ccc(-c3nnc(N)o3)s2)s1`, 45.5%.
For `O=c1c2c(nc3cc(-c4cccc(F)c4)[nH]n13)CCCC2`, the displacement was 11%.
With `O=C(NC(=S)NC1CCSC1=O)c1ccco1` (stereo not given), the displacement was found to be 1%.
For `COc1ccc(CCn2c(O)c(/C=C3/C=c4ccccc4=NC3=O)sc2=S)cc1OC` the value was 13.2%; for `CC(O)c1cccc(NC(=O)c2nn3c(c2Cl)NC(c2cccs2)CC3C(F)(F)F)c1` (stereo not given), 6.1%; for `O=C(Nc1ccc(OC(F)(F)F)cc1)c1nn2c(c1Br)NC(c1cccs1)CC2C(F)(F)F` (stereo not given), 12.3%.
For `NC(=O)CCSc1ccc(Cl)cc1` the value was 9.8%; for `N#Cc1ccccc1N=Cc1ccc(Cl)cc1Cl`, 19.9%.
For `Cn1c(=O)c2c(nc(N/N=C/c3ccccc3Cl)n2Cc2ccccc2)n(C)c1=O` the value was -0.9%; for `NC1=NC(=O)/C(=C\c2cccc(OCc3ccccc3)c2)S1`, -8.3%.
In the case of `CC(C(=O)O)N1C(=O)/C(=C/c2ccc3c(c2)OCO3)SC1=S` (stereo not given), the displacement worked out at 9.1%.
For `CCOC(=O)CNC(=O)C(CC)CC` the value was 1%.
`COc1ccc(-c2cc(C(=O)OC(C)C)c3cc(Br)ccc3n2)cc1`: the displacement was -3.9%.
For `CCOC(=O)c1c(NC(=O)c2ccc(C)c([N+](=O)[O-])c2)sc(C(=O)Nc2ccccc2OC)c1C` the value was -6.7%.
Regarding `O=c1c2ccccc2nc(/C=C/c2ccccc2[N+](=O)[O-])n1-c1cccc2ccccc12`, the displacement was -7%.
For `O=C(O)CCC(=O)Nc1ccc(NC(=O)CCC(=O)O)cc1` the value was -5.6%.
Regarding `C=CCN1C(=O)/C(=C\c2ccc(-c3ccc([N+](=O)[O-])cc3)o2)SC1=S`, the displacement worked out at 3.3%.
For `CCNC(=O)c1c(-c2c(Cl)cccc2Cl)noc1C` the value was -0.6%.
As to `O=C1CC(N(Cc2ccc3c(c2)OCO3)C(=O)c2ccc(Cl)cc2)C(=O)N1c1ccc(F)cc1` (stereo not given), the displacement is -2.2%.
For `CCOC(=O)/C(=C\c1ccncc1)C(=O)c1cc(C(C)=O)c(Nc2ccccc2)s1` the value was -1.4%.
